{
  "source": "PubChem BioAssay AID2675",
  "about": "(National Center for Advancing Translational Sciences (NCATS), 2010)",
  "note": "Screen size: about 280,000 compounds; about 100 (0.036%) were called active. Inconclusive means that the source gave no clear call. Such entries were picked first, then a sample of the others. Calls follow the shape of the dose curve; as a rule, active = well fitted inhibition curve with a large enough effect in the signal ratio, with a control signal flat (not every such curve was filed as active); inconclusive = small, poorly fitted or top-dose-only effect, or effect the other way, or a change in a side signal; inactive = no such curve, though single readings can be large or run the other way; the % refers to the signal ratio. Where the call is inconclusive, the potency comes from a doubtful curve fit. “Side channel” marks fits to a control or component signal instead of the main read-out. Potency is read from the fitted curve at half-maximal effect; tags tell the direction and shape of the fitted curve or compound fluorescence and quenching.",
  "data": [
    {"molecular_target": "Muscleblind-like protein 1 (Homo sapiens) (UniProt Q9NR56)", "sequence (Q9NR56 whole entry, looked up)": "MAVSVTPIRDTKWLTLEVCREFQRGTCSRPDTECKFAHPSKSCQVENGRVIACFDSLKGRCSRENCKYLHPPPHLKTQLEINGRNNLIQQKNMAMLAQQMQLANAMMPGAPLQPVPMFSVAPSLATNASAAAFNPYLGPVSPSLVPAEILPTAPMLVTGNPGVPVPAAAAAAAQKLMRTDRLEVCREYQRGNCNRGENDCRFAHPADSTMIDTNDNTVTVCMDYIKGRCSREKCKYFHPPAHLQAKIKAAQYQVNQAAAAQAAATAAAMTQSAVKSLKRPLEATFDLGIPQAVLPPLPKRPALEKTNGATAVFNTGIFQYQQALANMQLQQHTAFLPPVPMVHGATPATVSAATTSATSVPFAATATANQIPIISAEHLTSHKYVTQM", "experiment": "qHTS Assay for Inhibitors of MBNL1-poly(CUG) RNA binding", "settings": "TR-FRET MBNL1-His/biotin-(CUG)12 binding, 665/545 ratio; series mostly up to 57.5 µM", "source_text": "NIH Chemical Genomics Center [NCGC] NIH Molecular Libraries Probe Production Centers Network [MLPCN] MLPCN Grant: R03 MH087421-01 Assay Submitter (PI): Charles Thornton NCGC Assay Overview: Expanded CTG repeats in the 3' untranslated region of the DM protein kinase (DMPK) gene causes type I myotonic dystrophy (DM1). DM1 is a multi-systemic disease with a prevalence of 1/7000. Clinical features include myotonia, progressive muscle weakness and wasting, cardiac arrhythmia, insulin resistance, hypersomnolence, cataracts, and other symptoms. The pathogenic effect of expanded CTG repeats stems from deleterious effects of the mutant transcript. CUGexp mRNA accumulates in nuclear foci and sequesters proteins of the muscleblind family, of which MBNL1 is the most common family member in skeletal muscles. The binding interaction between MBNL1 and CUGexp tracts leads to deregulation of alternative splicing and is therefore a key molecular step in the pathogenesis of DM1. To target this binding interaction, we optimized a protein-RNA binding assay in 1536-well format for identification of small molecule inhibitors of biotinylated (CUG)12 and his-tagged MBNL1 binding. Protein-RNA complex of MBNL1-His and Biotin-(CUG)12 captures the detection reagents terbium-labeled anti-His antibody and streptavidin conjugated XL665. This brings the terbium label within close proximity to XL665 to allow time-resolved fluorescence resonance energy transfer (TR-FRET). Inhibitors of MBNL1-(CUG)12 binding will disrupt TR-FRET.\nNCGC Assay Protocol Summary: This is a TR-FRET binding assay with MBNL1-His and Biotin-(CUG)12 RNA. The assay uses a ratiometric measurement. In the presence of MBNL1-(CUG)12 complex, the excitation energy is transferred to the XL665 acceptor label, causing emission at 665nm, while the 545nm donor signal […]. Data were normalized to the controls for basal activity (buffer only) and 100% activity (with MBNL1-(CUG)12). […] The final titration was 92 nM to 58 uM. (3) Add 1 ul of terbium labeled anti-His antibody (0.055 ng/ul final concentration) (4) Add 1 ul of streptavidin-XL665 (5 nM final concentration) (5) Incubate 60 min at room temperature (6) Detect the assay plate in a EnVision plate reader (PerkinElmer) with Ex=340 nm, Em1=665 nm and Em2=545 nm. Keywords: mytonic dystrophy type I, DM1, muscleblind like 1, MBNL1, CUG expansion, protein-RNA binding inhibitor, high throughput screening, MLSMR, MLSCN, NIH Roadmap, qHTS and NCGC", "values": [
      {"smiles": "CCOc1ccc(/C=C2\\SC(=S)N(NC(=O)c3ccncc3)C2=O)cc1OC", "Potency": "inconclusive: 17.8 µM [quencher, partial curve]"},
      {"smiles": "COc1cccc(C(=O)NCCN2C(=O)S/C(=C/c3cccs3)C2=O)c1OC", "Potency": "inconclusive: 28.2 µM [quencher, side channel, single point]"},
      {"smiles": "N#C/C(=C\\c1cccnc1)c1nc2c(s1)CCCC2", "Potency": "inconclusive: 11.2 µM [quencher, side channel, partial curve]"},
      {"smiles": "CN(C)C(=O)c1cc([N+](=O)[O-])cc([N+](=O)[O-])c1N(C)C", "Potency": "inconclusive: 17.8 µM [quencher, side channel, partial curve]"},
      {"smiles": "Oc1ccc(/C=N/N=C/c2ccc(O)c(O)c2)cc1O", "Potency": "inconclusive: 25.1 µM [quencher, side channel, single point]"},
      {"smiles": "COc1cc(CNCCc2ccc(S(N)(=O)=O)cc2)ccc1OCC(=O)NC(C)(C)C", "Potency": "inconclusive: 0.1 µM [fluorescent, side channel, full curve]"},
      {"smiles": "Cc1ccc(NC(=O)CCNS(=O)(=O)c2cccc3nonc23)cc1", "Potency": "inconclusive: 17.8 µM [quencher, side channel, partial curve]"},
      {"smiles": "COc1ccccc1C1=NOC(COC(=O)c2ccc3ccccc3n2)C1", "note": "(configuration not stated)", "Potency": "inconclusive: 20 µM [quencher, side channel, single point]"},
      {"smiles": "Cc1cc(C(F)(F)F)n2[nH]c(=O)c(N=Nc3ccccc3)c2n1", "Potency": "inconclusive: 25.1 µM [quencher, side channel, single point]"},
      {"smiles": "C/C(=C\\C(=O)c1ccc(C)cc1)Nc1cccc(O)c1", "Potency": "inactive"},
      {"smiles": "O=C(Nc1ccccc1F)C1CCCN1S(=O)(=O)c1cccc2nsnc12", "note": "(configuration not stated)", "Potency": "inconclusive: 14.1 µM [quencher, partial curve]"},
      {"smiles": "COc1ccc(/C=C/C(=O)Nc2ccc3c(c2)CCC3)cc1OC", "Potency": "inactive"},
      {"smiles": "Cc1ccccc1NC(=O)CN1C(=O)N/C(=C\\c2cccn2-c2cccc(C(=O)O)c2)C1=O", "Potency": "inconclusive: 17.8 µM [quencher, partial curve]"},
      {"smiles": "COC(=O)/C=C1\\SC(=NC(=O)c2cccc([N+](=O)[O-])c2)NC1=O", "Potency": "inconclusive: 14.1 µM [quencher, side channel, partial curve]"},
      {"smiles": "Cn1c(=O)cc(OCC(=O)NCCCN2CCN(Cc3ccccc3)CC2)c2ccccc21", "Potency": "inconclusive: 31.6 µM [quencher, side channel, single point]"},
      {"smiles": "COc1ccc2oc(C(=O)c3ccccc3)c(NC(=O)CN3CCN(C)CC3)c2c1", "Potency": "inconclusive: 17.8 µM [quencher, side channel, partial curve]"},
      {"smiles": "Cc1[nH]c(=O)[nH]c(=O)c1S(=O)(=O)Nc1ccc(Cl)c([N+](=O)[O-])c1", "Potency": "inconclusive: 20 µM [quencher, side channel, single point]"},
      {"smiles": "COc1ccc(C(=O)N/N=C/c2cc(Br)ccc2O)cc1OC", "Potency": "inactive"},
      {"smiles": "CC(C)(C)SCCNC(=O)CSCc1ccc([N+](=O)[O-])cc1", "Potency": "inconclusive: 31.6 µM [quencher, side channel, single point]"},
      {"smiles": "CCc1ccc(-c2cc(C)no2)cc1S(=O)(=O)Nc1cccc(CN2CCCC2)c1", "Potency": "inconclusive: 0.708 µM [fluorescent, side channel, single point]"},
      {"smiles": "CN(CC(=O)Nc1ccc(F)cc1)C(=O)COc1ccc([N+](=O)[O-])cc1Cl", "Potency": "inconclusive: 25.1 µM [quencher, side channel, partial curve]"},
      {"smiles": "CC(=O)Nc1ccc(N2C(=O)CC(Sc3nc4ccccc4s3)C2=O)cc1", "note": "(configuration not stated)", "Potency": "inactive"},
      {"smiles": "C=CCn1c(O)c(N=NC(=O)OC(C)(C)C)c2ccccc21", "Potency": "inconclusive: 17.8 µM [quencher, side channel, partial curve]"},
      {"smiles": "COc1ccc(CN2CCC(CO)(CCOc3ccccc3)CC2)cc1C", "Potency": "inactive"},
      {"smiles": "Cc1ccc(C(C)(O)CS(=O)(=O)Cc2ccccc2)cc1", "note": "(configuration not stated)", "Potency": "inconclusive: 0.631 µM [quencher, side channel, full curve]"},
      {"smiles": "CN1C(=O)/C(=C/c2ccco2)SC1=Nc1cccc(C(=O)O)c1", "Potency": "inconclusive: 17.8 µM [quencher, side channel, partial curve]"},
      {"smiles": "O=c1[nH]ccc2c([N+](=O)[O-])cccc12", "Potency": "inconclusive: 15.8 µM [quencher, partial curve]"},
      {"smiles": "N#CCCn1c2ccccc2c2nc3ccccc3nc21", "Potency": "inconclusive: 7.94 µM [quencher, side channel, partial curve]"},
      {"smiles": "COc1c(/C=N/Nc2nc(N3CCCCC3)nc(N3CCCCC3)n2)cccc1[N+](=O)[O-]", "Potency": "inactive"},
      {"smiles": "N#Cc1cc([N+](=O)[O-])ccc1N1CCCC1", "Potency": "inconclusive: 2.82 µM [quencher, side channel, partial curve]"},
      {"smiles": "O=C(CSc1nnc2c(n1)[nH]c1ccccc12)N1CCCCC1", "Potency": "inconclusive: 15.8 µM [quencher, side channel, partial curve]"},
      {"smiles": "Cc1ccc(-c2cc(NC(=O)c3ccccc3[N+](=O)[O-])n[nH]2)cc1", "Potency": "inconclusive: 28.2 µM [quencher, side channel, single point]"},
      {"smiles": "CC1(C)CN=c2s/c(=C\\c3ccc(Cl)cc3)c(=O)n2C1", "Potency": "inconclusive: 25.1 µM [quencher, side channel, single point]"},
      {"smiles": "CC1(C)C(=O)Nc2ccccc2N1C(=O)CN1C(=O)c2ccccc2C1=O", "Potency": "inconclusive: 20 µM [quencher, side channel, single point]"},
      {"smiles": "CN(C)c1cc(Nc2ccc(O)cc2)c([N+](=O)[O-])c2nonc12", "Potency": "inconclusive: 3.16 µM [quencher, side channel, full curve]"},
      {"smiles": "COc1ccccc1CN1CCNC(=O)C1CC(=O)NCc1cn(C)nc1C", "note": "(configuration not stated)", "Potency": "inconclusive: 6.31 µM [inhibitor, single point]"},
      {"smiles": "CCOC(=O)N1CCC(=NNc2nc(C)cc(=O)[nH]2)CC1", "Potency": "inconclusive: 35.5 µM [quencher, side channel, single point]"}
    ]}
  ]
}
